The source gives no read counts; variants with many changes may rest on few reads.
B1: LINE1-mini (parent)
chain: GGCAGAGCUCAACACAGCGUGGCAAAGUGGCUGUGGCUAGACUGCC

Variants of: B1
Assay: self-cleavage, relative activity (ratio to wild type); higher = more cleavage; in vitro, sequencing; the parent is a self-cleaving ribozyme

Variant | self-cleavage
GGUAGAGCUCAACACAGCGUGCCUAAGUGGCUGUGGUUAGACUGCC [C3U G22C A24U C37U] | 0.03
GGUAGAGCUCAACACAGCGUUACAAAGUGGCUGUGGCUAGUGUGCC [C3U G21U G22A A41U C42G] | 0.17
GGCCGUGCUAAACAUAGGGUGGCAAAGUGGCUCUGGCUAGACUACC [A4C A6U C10A C15U C18G G33C G44A] | 0.01
GGUAGAGCUCAACACAGCGUGACAAAGUGGCUGUGGCUAGUCUGCC [C3U G22A A41U] | 1.64
GGUAGAGCUCAACACAGCGUGGCAAAGUGGCUGUGGCUAGACUCCG [C3U G44C C46G] | 0.04
GGUAUAGCUCAACACAGCGUUGCAAAGUGGCUGAGGCUAGACUGCC [C3U G5U G21U U34A] | 0
GGUAGAACUCAACACAGCGUGGCAAAGUGCCUGUGGCUUGACUGCC [C3U G7A G30C A39U] | 0.75
GGUAGAGCACAACACAGCGUGGCAAAGUGGCUGUGGGUAGACUAUC [C3U U9A C37G G44A C45U] | 0.02
GGUAGAGCUCAACACAUCGUGGCACAGUGGCUGUGGCUAGACUGCC [C3U G17U A25C] | 0.04
GGUAGAGCUCAACACAGCCUGGCAAAGUGGCUGUGUCUAGAGUGCC [C3U G19C G36U C42G] | 0.03
GGUAUAGCUCAACACAGCGUGGCAAAGUGGCUGUGGCUAGUCUGCC [C3U G5U A41U] | 0.45
GGCCGAGCUCCACACAGGGUAGCAAAGUGGCUGUGGCUAGACUGCU [A4C A11C C18G G21A C46U] | 0.02
GGUAGAGCUCAACACAUCCUGGCAAAUUGGCUGUGGUUGGACUGCC [C3U G17U G19C G27U C37U A39G] | 0.18
GGUAGAGCUCAACACAGCGUGGCAAAGUGUCUGUGGCUAGACCGCC [C3U G30U U43C] | 0.23
GGUAUAGCUCAACACAGCGUGGCAAGGUGGCUGUGGCUAGAGUGCC [C3U G5U A26G C42G] | 0.03
GGUAGACCUUAACACAACGUGGCAAAGUGGCCGUGGCUAGACUGAC [C3U G7C C10U G17A U32C C45A] | 0.05
GGUAUAGCUCAACACAGCGUGGCAAAGAGGCUGUGGCUAGACUGCC [C3U G5U U28A] | 0.09
GGUAGAGCUCAACACAACGUGGCAAAGUGGGUGUGGCUAGACUGCC [C3U G17A C31G] | 0.05
GGUAUAGCCCAACACAGCGAGACAAACUGGCUGUGGCUAGACUGCC [C3U G5U U9C U20A G22A G27C] | 0.01

Variant | self-cleavage
GGUAGAGCUCAACACAGCGUGGCAAAGUGGCUGGGGCUUGACUGCC [C3U U34G A39U] | 0.07
GGUACAGCUCAACACAGCGUGGCAAAGUGGCUGUGUCUAGACUUCC [C3U G5C G36U G44U] | 0.06
GGUAGAUCUCAUCACAGCGUGGCCACGUGGCUGUGGCUAGACUGCC [C3U G7U A12U A24C A26C] | 0.04
GGUAGAGCACAACACAGUGUGGCAAAGUGGCUGUGUCUAGACUGCC [C3U U9A C18U G36U] | 0.04
GGUAGAGCUCAACACAGCGUGACAAAGUGGCUGGGGCUAGACUGCC [C3U G22A U34G] | 0.05
GGUAUAGCUCAACACAGCGUGGCAAAGUGGCUGUGGCUAGACUCCC [C3U G5U G44C] | 0.05
GGCCGCUCUCAACACACCGUGGCAAAGUGCCUGUGGCUAGACUACC [A4C A6C G7U G17C G30C G44A] | 0.24
GGUAGAGCUCAACACAGCGUUGCAAAGUGGCUGUGGCUAGAGUGCC [C3U G21U C42G] | 0.12
GGUAGAACUCAACAAAGCGUGGCAAACUGGCUGUGGCUAGACUGCC [C3U G7A C15A G27C] | 0.3
GGUAGAGCUCAACACAGCGUGGCAAAGUGGCUGUUGCUAGACUGCG [C3U G35U C46G] | 0.08
GGUAGAGCUCAACACAGCGAGGCAUAGUGUCUGUGGCAAGACUGCC [C3U U20A A25U G30U U38A] | 0.06
GGUAGAGCUCAACACAGCGUAGCAUAGUGGCUGUGGCUAGACUGCC [C3U G21A A25U] | 1.22
GGUAGAGCUCAACACAGCGUCGCAGAGUGGCUGUGGCUGGACUGCC [C3U G21C A25G A39G] | 0.18
GGUAGAAUUCAACACAGCGUGGAUAAGUGGCUGUGGCUAGACUGCC [C3U G7A C8U C23A A24U] | 0.14
GGUAGAGCGCAACACAGCGUGGCACAGUGGCUGCGGCUAGACUGCG [C3U U9G A25C U34C C46G] | 0.16
GGUAGAGCUCAACACAUAGUGGCAAAGUGGCUGUGGCUAGACUGCC [C3U G17U C18A] | 0.05
GGUAGAGCUCAACACAACGUGCCAAACUGGCUGUGGCUAGACUGUC [C3U G17A G22C G27C C45U] | 0.05
GGUAGAGCUCAACACACCGUGGCAAAGGGGCUGUGGCUAGACUGCC [C3U G17C U28G] | 0.18
GGUAGAGCUCAACACAGCCUUGCAAAGUGGCUGUGGCUAGCCUGCC [C3U G19C G21U A41C] | 0.06

Variant | self-cleavage
GGUAGAGCUCAACACAGCGUGGCAAAGAGGCUGGGGCUAGACUGCC [C3U U28A U34G] | 0.11
GGUAGACCUCAUCACAGCGAGGCAAAGUGGCUGUGGCUAGACUGCC [C3U G7C A12U U20A] | 0.02
GGUAGAGCUCAACACAGCGCGGCAAAGUGGCCGUGGCUAGACUGCC [C3U U20C U32C] | 0.08
GGUAGAGCUCAACACAGCGUGAUAAAGUGGCUGUGGCUAAACUGCC [C3U G22A C23U G40A] | 0.06
GGUAGAGCUCAACACAGCGUCGCAUAGUGGCUGUGUCUAGAAUUCC [C3U G21C A25U G36U C42A G44U] | 0.3
GGUAGAGCACAACACAUCGUGGCGAAGUGGCUGUGGCUAGACUGCC [C3U U9A G17U A24G] | 0.02
GGUAGAGCCCAACAAAGCGUGGCAAAGCGGCUGUGGCUAGACUGCG [C3U U9C C15A U28C C46G] | 0.02
GGCCGCGCUCAACACAGCGUGGCAAAAUGGCUGUGGCUAGACUGCC [A4C A6C G27A] | 0.04
GGUAGAGCUCAACACACCGUCGCAAAGUGGCUGUGGCUAGACUGCC [C3U G17C G21C] | 0.32
GGUAGAGCUCAACACAGCGUGGCAAAUUGGCUGUGGCUAGACUACC [C3U G27U G44A] | 1.77
GGUAGAGCUCAACACAACGUGGCAAAGUGGCUGUGCCUAGACUGUC [C3U G17A G36C C45U] | 0.01
GGUAGAGCUCAACACAAUGUGGCAAAGUGGCUCUGGCUAGACUGCU [C3U G17A C18U G33C C46U] | 0.02
GGUAGAGCUCAACACAGCGUGGCAAAGUGGCUGUAGCUAGACAGCC [C3U G35A U43A] | 0.04
GGUAGAGCUCAACACAGCGUGCCAAAGUGGCUGAGGCUAGACUGCC [C3U G22C U34A] | 0.07
GGUAGAGCUCAACACAGCUUGGCAAAGCGCCAGUGGCUAGACUGCC [C3U G19U U28C G30C U32A] | 0.09
GGUAGAGCUCAACACAGCGUGGCAAAGUCGCUGUGUCUAGACUGCC [C3U G29C G36U] | 0.1
GGUAGAGCUCAACACAGCGUGGCAAAGUGGCUGUCGCUAGACUGCA [C3U G35C C46A] | 0.04
GGUAGAGCUCAACACAGCGUGACAAACUGGCUGUGGCUAGACUGCC [C3U G22A G27C] | 0.55

— the RNAGym collection of RNA variant scans (doi:10.7554/elife.90254)
